Assay results published in the supplement of paper PMC3334620.
Whole data set: some 33,000 sequences, median “E-score (-0.5 to 0.5)” near -0.035, cut for the highest 2% near 0.35. This is one part of the list.

Target: T1, Pdr3 (UniProt P33200)
T1 sequence: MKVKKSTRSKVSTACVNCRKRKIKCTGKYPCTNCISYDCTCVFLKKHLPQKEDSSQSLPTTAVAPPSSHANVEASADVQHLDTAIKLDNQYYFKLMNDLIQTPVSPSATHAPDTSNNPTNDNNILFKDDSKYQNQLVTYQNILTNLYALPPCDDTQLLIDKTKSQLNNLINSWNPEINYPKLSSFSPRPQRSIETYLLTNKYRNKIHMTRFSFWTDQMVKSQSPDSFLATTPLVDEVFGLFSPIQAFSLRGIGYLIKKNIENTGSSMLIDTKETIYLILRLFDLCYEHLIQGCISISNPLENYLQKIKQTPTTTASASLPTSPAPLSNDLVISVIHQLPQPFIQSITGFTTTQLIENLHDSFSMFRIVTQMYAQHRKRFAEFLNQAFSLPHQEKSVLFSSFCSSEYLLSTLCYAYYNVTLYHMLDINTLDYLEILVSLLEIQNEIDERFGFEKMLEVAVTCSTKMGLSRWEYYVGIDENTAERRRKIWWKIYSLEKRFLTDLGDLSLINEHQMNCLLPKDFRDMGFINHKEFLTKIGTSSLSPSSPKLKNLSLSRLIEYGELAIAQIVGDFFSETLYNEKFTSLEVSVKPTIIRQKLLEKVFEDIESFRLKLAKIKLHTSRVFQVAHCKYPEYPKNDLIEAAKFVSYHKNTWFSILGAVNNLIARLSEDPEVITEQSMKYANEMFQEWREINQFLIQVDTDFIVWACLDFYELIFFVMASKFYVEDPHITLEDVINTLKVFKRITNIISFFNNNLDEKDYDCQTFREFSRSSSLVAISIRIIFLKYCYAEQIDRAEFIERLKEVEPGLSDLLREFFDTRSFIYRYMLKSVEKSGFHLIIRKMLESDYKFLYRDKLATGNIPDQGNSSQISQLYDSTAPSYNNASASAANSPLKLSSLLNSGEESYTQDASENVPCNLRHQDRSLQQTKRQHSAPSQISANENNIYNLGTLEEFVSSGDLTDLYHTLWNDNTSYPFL
Assay: PBM E-score (8-mer binding enrichment) (E-score (-0.5 to 0.5)); higher = stronger / more preferred TF binding; most listed sequences are background and not binding sites
Conditions: protein concentration: 200 nM; construct: GST-full length
Method: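 Universal 'all 10-mer' protein binding microarrays (Agilent AMADID 015681) probed with GST-tagged S. cerevisiae TFs (full-length or DBD) made by in vitro transcription/translation (PURExpress), about 100-200 nM. Bound TF was detected with fluorescent anti-GST. Each ungapped 8-mer (which stands for itself and its reverse complement) is scored by the PBM enrichment score (E-score), a modified Wilcoxon-Mann-Whitney statistic from -0.5 to +0.5, computed with the Universal PBM Analysis Suite. Scale: above 0.35 generally sequence-specific binding.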

Row | Sequence | PBM E-score
1 | CGACAACA | 0.0728
2 | ATTTTCCA | 0.122
3 | GGTCGCAC | -0.00106
4 | CTTCATAA | 0.0224
5 | CCACTAGG | -0.207
6 | AATACCGC | 0.227
7 | TGCCCGAA | 0.0367
8 | GAGAAGCC | 0.0255
9 | ACGCCTTA | -0.162
10 | GTATCCGA | 0.263
11 | CCACGGAA | 0.484
12 | GAAGTCGC | 0.0394
13 | GAGCTACC | -0.0837
14 | GCTGTGCC | 0.0656
15 | CCAATAAG | -0.255
16 | AGTTCGAA | 0.0494
17 | CTTCGGTA | -0.0957
18 | GCCTCTTA | -0.109
19 | GTAACAAA | -0.0631
20 | CACTGACC | 0.0213
21 | CTCTCAAC | -0.0299
22 | AGAGGATG | 0.0386
23 | AACACAGG | -0.125
24 | ACCTCACG | -0.0493
25 | GGTATCGA | 0.0822

Row | Sequence | PBM E-score
26 | CTAATGCC | -0.0212
27 | CGTGAACC | 0.117
28 | ACCGTATC | 0.0549
29 | CATATAAG | -0.124
30 | CGATTACC | 0.191
31 | AGGCTAAG | -0.257
32 | AGACAAAT | -0.196
33 | CTTCGCTA | -0.115
34 | TCAGAGAA | -0.289
35 | ATTAGTTA | 0.135
36 | CAGCCGAC | 0.00823
37 | TCCTTAGA | -0.274
38 | CACGTCCA | -0.297
39 | AGACCTGA | -0.0321
40 | ATCGCGCA | -0.0525
41 | GAACACAA | -0.0931
42 | GTCATCAC | -0.119
43 | GCCTCTCC | -0.0616
44 | AATATTAG | -0.051
45 | ATGCTGAA | -0.0375
46 | AAGCCATC | -0.0284
47 | ACAGTAGG | -0.203
48 | AGCGCACG | -0.0412
49 | ATTCAGTG | 0.0778
50 | AGACTATC | -0.225

Row | Sequence | PBM E-score
51 | TAGGGAGA | 0.036
52 | AGGCGTGC | -0.104
53 | GAGGGAGC | -0.0208
54 | CCGGCGAG | 0.261
55 | AGGTTTAA | -0.135
56 | CGTCAGTA | -0.0798
57 | AAAACGAG | -0.142
58 | ATCCCCTG | -0.191
59 | ACTGCTTG | -0.233
60 | ACTACAGA | 0.0418
61 | TGATATAA | -0.198
62 | GTTGCCCA | 0.0279
63 | AGCTTGTG | -0.0685
64 | GTGCTACA | -0.38
65 | GGATCCCC | 0.25
66 | CATCTGCA | -0.0227
67 | CTTGGCCC | -0.258
68 | ATACTCCC | 0.127
69 | AAGTAGTA | -0.0848
70 | CGCGAATC | 0.0604
71 | ACCAAGAA | 0.029
72 | TTCGAAAA | 0.0229
73 | ATTTAGCA | -0.0254
74 | TAGCAGAA | 0.018
75 | AGGATGAG | -0.125

Row | Sequence | PBM E-score
76 | ACGTGGAA | -0.0114
77 | AGGGAGAC | -0.0867
78 | CCTCTGGC | -0.0661
79 | GCAGAGCC | -0.071
80 | CTATTGCC | -0.0815
81 | AACACTGA | 0.0985
82 | AACGGAAG | 0.423
83 | CCGTTCAA | 0.203
84 | GTAATCCA | -0.0176
85 | AGAATCAA | 0.00275
86 | CCGAAACC | -0.0197
87 | ACTCCATG | -0.0644
88 | CACGCTAG | -0.154
89 | AACTCATC | 0.0776
90 | GGGCTAAC | -0.148
91 | CGGCGTGC | 0.12
92 | CACAACCA | 0.0804
93 | TACATCAA | -0.104
94 | AGATTTGG | -0.159
95 | CCGACTCG | 0.05
96 | AAGCGGCG | 0.0462
97 | GAGTGGGC | -0.0819
98 | AATTCTGC | 0.117
99 | GCCAGCGA | -0.0413
100 | AGACCACT | -0.153

Row | Sequence | PBM E-score
101 | AATAAGTC | -0.111
102 | AACTTATT | 0.141
103 | AACGGTTA | -0.0313
104 | ACACTAGC | -0.0588
105 | ATGGGGCC | -0.161
106 | AACAGAGA | 0.0504
107 | CTATGTTC | 0.0801
108 | CAATGAAG | -0.282
109 | AATAGTAT | 0.2
110 | CCATCAAC | -0.0684
111 | CACTTCGC | -0.165
112 | GCCTGTAC | -0.0601
113 | CCGGCTCG | 0.331
114 | CGACGAGA | -0.127
115 | CATGAAAA | -0.0962
116 | GGGAACCC | 0.133
117 | AACTGTAG | -0.124
118 | AAGTATCC | 0.0359
119 | CGGACACG | 0.335
120 | AAATACAA | 0.0586
121 | CGGGGGTC | 0.00801
122 | ACAAACAA | -0.162
123 | CTGCATCC | 0.0477
124 | ATATATTC | 0.226
125 | CAGTCATC | -0.077

Row | Sequence | PBM E-score
126 | CCACCTGC | 0.0368
127 | CCTTTCTC | -0.224
128 | CGTACCGA | 0.0195
129 | TAGGTCAA | -0.167
130 | CGTAATAG | -0.0757
131 | ATAGTCTA | -0.226
132 | TCCGTCCA | 0.324
133 | CCTAATTA | -0.0268
134 | CCCCCATC | -0.128
135 | GTCCTTAA | -0.107
136 | AATCCGGC | 0.302
137 | CTCATTTC | -0.0257
138 | CGTGAACA | 0.149
139 | AATTAGGC | 0.0727
140 | ATATGTGC | 0.04
141 | ATTTGCCC | 0.167
142 | ACTGGTAC | 0.0483
143 | CGTCATGA | 0.0709
144 | ATACCGAG | 0.0196
145 | CATAGAGG | -0.176
146 | GCGGGTAA | 0.104
147 | AGCATTAT | -0.116
148 | GGCCGTAC | 0.16
149 | ACGAGGTC | -0.145
150 | ACCCGAAA | 0.155

Row | Sequence | PBM E-score
151 | GGGTATTA | 0.187
152 | GGCCTTGA | 0.0147
153 | TCTTTCAA | -0.142
154 | CTTTGACC | -0.018
155 | ACGTACCA | -0.274
156 | AATCTCTC | -0.0116
157 | GCATCGGA | 0.298
158 | CGGATTCA | 0.179
159 | GCTGAGGA | -0.132
160 | ACGGTTAG | -0.148
161 | TAACAGCA | 0.0507
162 | AATCCGAG | 0.216
163 | AGGAATGC | -0.0575
164 | AACAGCAC | 0.0734
165 | ATAGCAGC | -0.138
166 | AAATAAGT | -0.239
167 | ACCCTAGC | -0.0889
168 | ATACATAC | -0.0839
169 | GTAGTGGA | -0.0159
170 | ACCACTCG | 0.0931
171 | CCCTCCTC | -0.255
172 | AGTCTTTG | -0.326
